In PubChem BioAssay AID488969 (Vanderbilt High Throughput Screening Facility, 2010):
Whole data set: some 110,000 compounds, median “z-score” near -0.1, cut for the highest 2% near 2. The list shows a part of the results. Active and inactive are the calls of the source.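 Rule for the calls: active = z-score in the third read window above 3 or below -3; inactive = the rest.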

Biological target: Metabotropic glutamate receptor 8 (Rattus norvegicus) (UniProt P70579)
Assay: mGluR8 Gi/Go-coupled signaling modulation – cell-based, rat, thallium flux, HTS, primary screen (AID 488969)
Conditions: HEK293 rat mGluR8, GIRK (G protein-gated inwardly rectifying potassium channel) thallium flux, FluoZin2; at 10 µM; stronger effect = higher value; submaximal glutamate (EC20) added with thallium

Chain of UniProt P70579 (P70579 whole entry, looked up): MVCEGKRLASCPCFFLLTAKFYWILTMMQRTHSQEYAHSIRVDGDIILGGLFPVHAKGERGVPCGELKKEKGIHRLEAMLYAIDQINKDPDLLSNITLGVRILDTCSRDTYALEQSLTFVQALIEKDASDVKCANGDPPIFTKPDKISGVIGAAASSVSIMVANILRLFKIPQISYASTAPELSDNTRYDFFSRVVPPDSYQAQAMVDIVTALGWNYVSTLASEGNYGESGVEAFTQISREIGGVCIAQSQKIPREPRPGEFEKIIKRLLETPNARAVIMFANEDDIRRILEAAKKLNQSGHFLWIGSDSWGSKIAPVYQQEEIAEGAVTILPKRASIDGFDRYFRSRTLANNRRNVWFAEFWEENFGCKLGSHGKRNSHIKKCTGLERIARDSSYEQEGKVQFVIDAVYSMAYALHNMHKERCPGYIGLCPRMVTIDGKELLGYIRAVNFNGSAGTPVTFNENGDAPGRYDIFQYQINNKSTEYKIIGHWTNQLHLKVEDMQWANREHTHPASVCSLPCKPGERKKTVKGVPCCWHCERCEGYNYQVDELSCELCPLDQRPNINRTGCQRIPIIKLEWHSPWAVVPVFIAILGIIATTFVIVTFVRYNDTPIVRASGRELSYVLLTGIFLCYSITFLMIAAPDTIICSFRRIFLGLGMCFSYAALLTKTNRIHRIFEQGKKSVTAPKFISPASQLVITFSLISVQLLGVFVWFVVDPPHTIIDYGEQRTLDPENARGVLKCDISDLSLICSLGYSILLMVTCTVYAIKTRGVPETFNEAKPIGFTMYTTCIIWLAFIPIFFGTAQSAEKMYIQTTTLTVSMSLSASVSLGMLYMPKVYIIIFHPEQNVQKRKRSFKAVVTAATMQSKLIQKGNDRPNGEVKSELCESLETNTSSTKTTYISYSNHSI

| Compound | z-score |
| --- | --- |
| CC(C)Oc1ccc(C2c3c(oc4ccccc4c3=O)C(=O)N2CCCN2CCOCC2)cc1 (stereo not given) | -0.432 |
| Fc1ccc(NC(=S)NN=C2CCCCCC2)cc1 | active: 12 |
| CCCCCn1c(N2CCC(Cc3ccccc3)CC2)nc2c1c(=O)[nH]c(=O)n2C | -0.393 |
| CN(C)Cc1ccc(O)c(CCc2ccccc2)n1 | -0.201 |
| COC(=O)C1CCN(C(=O)CCC2CCCCC2)CC1 | -0.476 |
| C/C=C/C(=O)OCC(=O)Nc1c(Cl)cccc1Cl | 0.337 |
| COc1ccc(C2CC(c3ccc(OC)cc3)n3nc(NC(=O)c4ccco4)nc3N2)cc1 (stereo not given) | -0.483 |
| CCC(=O)Nc1ccc(NC(=O)c2ccc3c(c2)OCO3)cc1 | -0.405 |
| CC(C)Oc1ccc(C(=O)Nc2ccccc2N2CCCC2)cc1 | -0.324 |
| O=C(O)Cn1c(P(=O)(O)c2ccccc2)nc2ccccc21 | -0.499 |
| CCc1c(C)nc(SCC(=O)Nc2ccc(Br)cc2)[nH]c1=O | -0.233 |
| O=C1C2C3C=CC(C4CC34)C2C(=O)N1Cc1ccco1 (stereo not given) | 0.448 |
| Cc1nnc(SC(C)C(=O)NC2CCCc3ccccc32)n1-c1ccccc1 (stereo not given) | -0.0715 |
| Cc1ccccc1C(=O)NC(=S)Nc1ccc(S(=O)(=O)N2CCOCC2)cc1 | -0.275 |
| O=C(CCc1ccc(S(=O)(=O)N2CCOCC2)cc1)Nc1nccs1 | -0.204 |
| O=C(C1CCCO1)N(Cc1ccccc1)c1ccccc1 (stereo not given) | -0.415 |
| CCOC(=O)COc1ccc(S(=O)(=O)N2CCc3ccccc3C2)cc1 | -0.357 |
| O=C(NCc1ccncc1)Nc1cccc(Cl)c1 | 0.129 |
| CC(C)CC(=O)NC(=S)Nc1nc(-c2cccc3ccccc23)cs1 | 2.97 |
| CCOC(=O)c1cc(-c2ccccc2)n(CCC(=O)N2CCN(c3ccc(OC)cc3)CC2)c1C | -0.203 |
| COc1ccc(N2C(=O)NC3CC2(C)Oc2ccc(Br)cc23)cc1OC (stereo not given) | -1.01 |
| Cc1ccc(S(=O)(=O)N/N=C/c2cn(C)nc2C)cc1 | -0.0969 |
| CCCCN1CCc2c1nc1ccc(Br)cc1c2N | 0.536 |
| COc1ccc(-c2cc(C(F)(F)F)n3nc(C(=O)NCc4ccco4)cc3n2)cc1OC | 0.0487 |
| CC1=CC(C)(C)N(C(=O)c2ccccc2)c2ccccc21 | 0.192 |

| Compound | z-score |
| --- | --- |
| COc1ccc(OC)c(C2/C(=C(\O)c3ccc(OC)c(Cl)c3)C(=O)C(=O)N2CCN(C)C)c1 (stereo not given) | -0.393 |
| CC(C)NC(=O)c1onc(CSc2ccc(F)cc2)c1C(=O)O | -0.0064 |
| CC(C)n1cnc2cc(NCc3ccco3)ccc21 | -0.703 |
| CC1(C)CC(=O)C(N=Nc2c(Cl)cc(Cl)cc2Cl)=C(O)C1 | -0.601 |
| Cc1[nH]nc(N=CC2=C(O)CC(c3ccco3)CC2=O)c1-c1ccccc1 (stereo not given) | 0.835 |
| Cc1occc1-c1nnc(SCC(=O)c2cc3ccccc3oc2=O)o1 | -0.267 |
| O=S1(=O)CC(O)C(Nc2ccccc2)C1 (stereo not given) | -0.341 |
| Brc1cc2c(cc1COc1ccc(-c3nn[nH]n3)cc1)OCO2 | 0.281 |
| Cc1ccccc1NC(=O)/C(C#N)=C/c1ccsc1 | -0.272 |
| COCCn1nnnc1C(C(C)C)N1CCOCC1 (stereo not given) | -0.214 |
| CN(c1ccccc1)S(=O)(=O)c1ccc(Cl)c(C(=O)Nc2nc3ccccc3[nH]2)c1 | -0.226 |
| CC(=O)Nc1ccc2c(c1)ncn2C1CCCCC1 | 0.387 |
| Cc1cc(Oc2cnn(C(C)(C)C)c(=O)c2Cl)cc(C(C)C)c1 | -0.133 |
| COc1ccccc1NC(=O)CSCC(N)=O | 0.821 |
| Cc1cccc(NCCNc2cccc(C)c2)c1 | -0.488 |
| S=C(NCC1CCCO1)Nc1ccc(Cl)cc1Cl (stereo not given) | 0.145 |
| O=C(O)C1CC=CCC1C(=O)Nc1cccc(Cl)c1 (stereo not given) | -0.0814 |
| O=C(CCC(=O)c1ccc(F)cc1)OC1CCOC1=O (stereo not given) | -0.0455 |
| COCc1cc(C)nc(N2CCc3ccccc32)c1C#N | -0.0247 |
| CCOC(=O)CC1=CSC2=NS(=O)(=O)CCN12 | -0.784 |
| CCOc1ccc(OCc2ccc(C(=O)NCC3CCCO3)o2)cc1 (stereo not given) | -0.557 |
| CC(CN1CCOCC1)OC(=O)c1ccccc1Br (stereo not given) | -0.369 |
| O=C(O)c1ccc(/C=N/NC(=O)c2cc(-c3cccs3)nc3ccccc23)cc1 | -0.177 |
| Cc1cc(OCC(=O)Nc2ccc(S(=O)(=O)N3CCN(C)CC3)cc2)cc(C)c1Cl | 0.455 |
| COc1ccccc1CNC(=O)CCCOc1cc(=O)n(C)c2ccccc12 | -0.13 |

| Compound | z-score |
| --- | --- |
| c1cc2c(cc1Oc1nc(N3CCOCC3)nc(N3CCOCC3)n1)OCO2 | -0.154 |
| Cc1cccc2sc(N(CCCN(C)C)C(=O)c3cc4ccccc4oc3=O)nc12 | 0.344 |
| CCOC(=O)N/N=C/c1ccc(N2CCOCC2)s1 | -0.261 |
| COc1cc(OC)nc(NC(=O)CS(=O)(=O)c2ccccc2)n1 | -0.906 |
| COc1ccc(C(C)=O)cc1CN1C(=O)NC2(CCCCC2C)C1=O (stereo not given) | 0.176 |
| O=C(COC(=O)c1ccc(CSc2ccc(Cl)cc2)cc1)Nc1ccccc1 | -0.179 |
| c1ccc(-c2ccc(-c3cnc4n3CCCCC4)cc2)cc1 | 0.704 |
| C=C(C)C1CC=C(CN2CCC(O)CC2)CC1 (stereo not given) | 0.257 |
| COc1cc(SC)ccc1C(=O)NCc1ccc(C)cc1 | -0.6 |
| Cn1cccc1/C=C1\SC(=O)N(c2ccccc2)C1=O | -0.564 |
| O=C1CC(c2cccc([N+](=O)[O-])c2)c2ccc3ccccc3c2N1 (stereo not given) | -0.494 |
| COc1cccc(C(=O)Nc2ccc(NC(=O)c3ccco3)nc2)c1 | 0.861 |
| Cc1nc2ncnn2c(N2CCC(C(=O)NCC3CCCO3)CC2)c1Cc1ccccc1 (stereo not given) | 0.813 |
| O=C(O)c1cc2nc3c(c(C(F)(F)F)n2n1)CCc1ccccc1-3 | 1.97 |
| Cn1nnnc1SCC(=O)c1cccs1 | 0.759 |
| COc1cc(/C=C(\NC(C)=O)C(=O)Nc2cccc(O)c2)ccc1OC(C)=O | -0.211 |
| COc1ccc(C(=O)N2CCC(C(=O)Nc3cccc(C)c3)CC2)cc1OC | -0.234 |
| COc1ccc(NC(=O)Nc2cccc(OC)c2)cc1 | 0.279 |
| O=C(NC(=S)Nc1nc2ccccc2s1)c1cccs1 | active: 11.7 |
| O=C(Nc1cccnc1)c1ccccc1-c1nc(-c2ccccc2F)no1 | -0.626 |
| COc1cccc(/C=N/c2sc(Cc3ccccc3)c(C)c2C(N)=O)c1O | -0.714 |
| Fc1ccc(Nc2ccnc(Nc3ccc(F)cc3)n2)cc1 | 0.105 |
| CCCCCCCCCC(=O)N/N=C(\C)c1cccnc1 | -0.69 |
| CCOc1ccccc1OCCCC(=O)Nc1sccc1C(N)=O | 0.813 |
| COC(=O)c1ccc2c(c1)C(=O)N(C1CCCCC1)C2=O | 0.304 |
